Laboratory results as given in ChEMBL document CHEMBL4888484, “Replenishing the malaria drug discovery pipeline: Screening and hit evaluation of the MMV Hit Generation Library 1 (HGL1) against asexual blood stage Plasmodium falciparum ,using a nano luciferase reporter read-out” (2022).
Screen size: about 150,000 compounds; about 540 (0.36%) showed an effect of 50% or more. This is one part of the list.

system: Plasmodium falciparum; assay: Primary screen in NF54 nanoGlo assay, in single point, at 2uM, 72h; a lower Z score goes with more inhibition; format: functional, Erythrocyte; conditions: timepoint 72 hour

Structure (SMILES) | % Inhibition | Z score
O=C(NCc1cccnc1)C1Cc2cc(C(F)(F)F)ccc2N2CCCCC12 (stereo not drawn) | -13% | 1.83
O=C(c1n[nH]c2ccccc12)N1CCC[C@H]1c1ccncc1 | -2% | 0.38
Cc1cc(C)n(-c2ccc(CNC(=O)c3nn(-c4ccccc4)c(C)cc3=O)c(C(F)(F)F)c2)n1 | 4% | -0.67
COc1cccc(COC[C@@H](O)CN2CCOC3(CCCCC3)C2)c1 | 1% | -0.14
O=C(O)[C@H]1CC[C@H](C(=O)NCCc2ccccc2)CC1 | -7% | 1.35
Cc1onc(-c2ccccc2)c1C(=O)N(C(=O)c1c(-c2ccccc2)noc1C)c1ccccn1 | 1% | -0.1
O=C(CCCc1ccc(F)c(F)c1)NCCc1cscn1 | -4% | 0.61
C[C@@H](NC(=O)c1ccc(S(C)(=O)=O)s1)c1ncc[nH]1 | 2% | -0.47
O=S(=O)(NCc1nc(C2CCOCC2)no1)c1ccc(-n2cccn2)cc1 | -16% | 1.99
Cc1nnc(-c2nnc(NCc3cccnc3)c3ccccc23)o1 | 4% | -0.81
O=C(CCc1nc2ccccc2s1)N1CCC[C@H](Nc2ccc3c(c2)OCCO3)C1 | -12% | 2.25
Cc1noc(C)c1Cc1nc(CC(N)=O)nn1C1Cc2ccccc2C1 | -26% | 2.32
CC(=O)Nc1cccc(-c2noc(C3CCC3)n2)c1 | -12% | 2.08
CC(C)Nc1cc(-c2cncnc2)nc(N)n1 | -6% | 0.94
CNC(=O)[C@@H]1CN(C(=O)c2c[nH]c3ccccc23)C[C@H]1CO | 3% | -0.5
O=C1N[C@@H](CC(=O)N2CCN(Cc3ccccc3Cl)CC2)C(=O)Nc2ccccc21 | 4% | -0.48
Cc1occc1C(=O)N1CCC2(CC1)CC(=O)N(C/C=C/c1ccccc1)C2 | 2% | -0.33
Cc1ccc(CN[C@H]2C[C@H]3C(=O)N4CCC[C@@H]4C(=O)N3C2)cc1F | -4% | 0.47
O=C(Cn1c(=O)n(Cc2ccccc2F)c(=O)c2sccc21)Nc1cc(F)cc(F)c1 | 7% | -0.85
O=C(CN1CCN(Cc2cccc(Cl)c2)C1=O)NC1CC1 | 43% | -5.73
COc1ccc(-n2nc3nc(N4CCCC4)nc(-c4cccc(F)c4)c3c2N)cc1 | 8% | -0.81

Structure (SMILES) | % Inhibition | Z score
Cc1cc(CN(C)Cc2cc(C(=O)O)sc2C)no1 | -6% | 0.98
COc1ccc(N2CCN(C(=O)CNc3ccc(OC)c(N4CCOC4=O)c3)CC2)cc1 | 5% | -1.1
CC[C@@H](CO)N(Cc1cscn1)c1ccccc1 | -9% | 0.94
CC1CN(Cc2cccc3c2OCCO3)CC(C)S1(=O)=O (stereo not drawn) | -5% | 0.77
C[C@H](Nc1ccccc1NC(=O)CN1CC(=O)N(C)C1=O)c1ccccc1 | -4% | 0.57
COc1ccc(-[n+]2c(-c3ccccc3)cn3c2CCC3)cc1 | 79% | -11.37
Cn1cc(C#N)cc1C(=O)N1CCC2(CCC(=O)N(C[C@H]3CCCO3)C2)CC1 | -7% | 0.86
CCS(=O)(=O)C[C@H](C)N(C)c1cc(C#N)nc(C)n1 | -2% | 0.22
C=CCCCN1CCC2(CC1)CCN(C(=O)OC(C)(C)C)CC2 | -14% | 1.5
c1ccc(-c2c3c(cc4ccccc24)C[N+]2(CCOCC2)C3)cc1 | -3% | 0.48
Cc1cccc(COc2cccc(CC(=O)N3CC[C@@H](N)C3)c2)c1 | -4% | 0.41
Cc1oc(Br)cc1C(=O)N1CCC[C@H](CCO)CC1 | -3% | 0.59
CCOc1nnc(CN2CCC[C@H]2C(=O)Nc2ccc(OC)cc2)s1 | -1% | 0.17
CC(NC(C)C1CC2CCC1C2)C(=O)NC(=O)NC1CC1 (stereo not drawn) | -4% | 0.72
CC(C)(CNC(=O)[C@]1(O)CCOC1)C1CCC1 | -6% | 0.77
O=S(=O)(c1ccc2c(c1)OCCCO2)N(Cc1ccccc1)CC1CCC1 | -2% | 0.24
COC(=O)c1cc(C2CC2)nc2c1c(=O)n(CC(=O)N1CCCC[C@@H]1C)c(=O)n2-c1ccccc1 | -13% | 1.7
C[C@H](N(C)C(=O)C12CC(C1)C2)C(C)(C)O | -15% | 2.78
Cc1noc(C)c1CN1CCc2c(C(=O)NC[C@H](C)N3CCCC3)csc2C1 | 0% | -0.02
Cc1oc(C)c(C(=O)Nc2cccc3c2C(=O)NC3)c1Br | -7% | 0.74
CN1CCC2(CC1)CN(C(=O)C1(O)CC(C)(C)C1)Cc1ccccc12 | -1% | 0.09

Structure (SMILES) | % Inhibition | Z score
CN(CCc1ncon1)C(=O)[C@]1(c2ccccc2)CC1(C)C | 0% | -0.03
O=C(O)Cn1ccc(NC(=O)C2CCc3ccccc3CC2)n1 | 0% | 0.01
CC(=O)c1ccc(-c2cc(N)nc(N(C)C)n2)cc1 | -3% | 0.48
Cn1cc(CN2CCC[C@H](C(N)=O)C2)c(-c2cccs2)n1 | 6% | -0.83
NC[C@H]1CCCN1C(=O)c1cc(O)nc2ccc(Br)cc12 | -3% | 0.41
c1ccc(CCCc2nnnn2Cc2ccon2)cc1 | -2% | 0.22
CC1=CCN(C(=O)Nc2cccc(OCC(=O)N3CCOCC3)c2)CC1 | 6% | -0.85
O=C(c1ccc(-c2ccsc2)cc1)N1CCC(N2C(=O)COC2=O)CC1 | -17% | 3.17
N[C@@H](Cc1c(F)cccc1Cl)C(=O)O | -2% | 0.19
CC(C)C[C@@H](CN(C)C)NC(=O)NCc1nc(-c2cccs2)n[nH]1 | 3% | -0.37
Cc1c(CNC2CCCCCC2)c(C(=O)O)c(C)n1Cc1c(F)cccc1Cl | 5% | -0.72
N#Cc1cccc(N2CCC3(CC2)C[C@H](c2ccccc2)CN(C2CC2)C3)n1 | -8% | 1.65
CC[C@H](CNC(=O)NCc1n[nH]c(=O)[nH]1)Cc1ccccc1 | -5% | 0.55
CC1CN(CCCN2CC(C)OC(C3CC3)C2)CC(C2CC2)O1 (stereo not drawn) | -4% | 0.42
c1ccc(N2CCN(Cc3cccn3-c3nnc(N4CCCCC4)s3)CC2)nc1 | -13% | 1.31
CCCN1C(=O)c2c(C(=O)NCc3ccc(OC)cc3OC)ncn2C[C@@]1(C)C(=O)NC1CCCC1 | -10% | 1.96
CC(C)(Oc1ccc(Cl)cc1)C(=O)N1CC(c2nc(-c3ccccn3)no2)C1 | -15% | 2.18
CS(=O)(=O)Nc1cccc(Cl)c1Br | 7% | -0.84
CC(C)(C)NC[C@H](O)COc1c(F)cc(Br)cc1F | 10% | -1.27
Cn1ccc2ccc(CN3CCn4nc(CNc5ncccn5)cc4C3)cc21 | 0% | -0.07
CCC[C@@H](C(=O)NCCN1CCOCC1)n1c(Cc2ccccc2Cl)nc2cc(C)c(C)cc21 | -9% | 1.61

Structure (SMILES) | % Inhibition | Z score
O=C(NCC1(O)CCC1)N[C@@H](Cc1ccccc1)C1CC1 | -16% | 1.88
CC(Oc1cccnc1)C(=O)N1CCOCC1C1CC1 (stereo not drawn) | -1% | 0.1
CC1CCC(N(C(=O)[C@H]2CCCN(C(=O)c3ccc(Cl)cc3)C2)C2CC2)CC1 (stereo partly drawn) | -7% | 1.21
Fc1ccc(-c2nc3c(cnn3C3CCCC3)[nH]2)cc1 | -6% | 0.81
Cc1ccc(C(=O)N(C)Cc2ccc(Br)o2)cn1 | -17% | 2.32
CCN1CCO[C@H](C(=O)NCc2ccc(Cn3cccn3)cc2)C1 | 6% | -0.7
COC(=O)c1ncn2c1C(=O)N(Cc1cccc(OC)c1)[C@](C)(C(=O)NC1CCCC1)C2 | -9% | 1.32
O=C1NCCN1C(=O)N1CCO[C@H](c2ccccc2)C1 | -2% | 0.37
CCNC(=O)CNS(=O)(=O)c1cc(N(C)C)ccc1Br | -1% | 0.08
O=C(O)C1CC=CCC1C(=O)Nc1nc(-c2cccc3ccccc23)cs1 (stereo not drawn) | -30% | 3.54
O=C(CC1(C(=O)O)CCCC1)Nc1ccc2[nH]ncc2c1 | -1% | 0.11
Cc1ccccc1CC(=O)N1CCc2[nH]nc(C(=O)N3CCN(c4ccccc4)CC3)c2C1 | 7% | -0.87
C[C@H]1CCCCN1C(=O)C1CCN(c2ncnc3c2nc2n3CCCCC2)CC1 | -10% | 1.62
O=C(NCCN1C(=O)CCCC1=O)C1CC1C1CC1 (stereo not drawn) | -15% | 2.28
Cc1ccnn1CC(=O)N1CCC(O)(CNc2ncc(C#N)cc2Cl)CC1 | 13% | -1.5
Cn1cc(-c2nccnc2CNS(=O)(=O)c2cccs2)cn1 | -8% | 0.96
Cn1nc(C2CCCCC2)cc1NC(=O)C[C@H]1CCCS(=O)(=O)C1 | 16% | -1.89
Cc1ccc(NC(=O)Cn2c(=O)n(-c3ccc(F)cc3)c(=O)c3c2cc(C)n3C)cc1F | -18% | 1.7
O=C(NCCO)NC1CCC(F)(F)CC1 | 9% | -1.11
Cc1ccc(F)c(C(=O)N2CCN3C(=O)NC(=O)[C@@H]3C2)c1 | -16% | 2.11
COc1cccc(NC(=O)C2Cc3cc(C(F)(F)F)ccc3N3CCN(c4ccccc4F)CC23)c1 (stereo not drawn) | -10% | 1.15
